This passage reports binding signal results from paper PMC12136788.

First the molecules themselves.
B1: chr8:23842440:23842541:-|3pUTR|ENSG00000159167|msi1|total|mutant (ssRNA)
RNA: GGGAGUUCUACAGUCCGACGAUCCCAAUGCGACAAGCCGUUCAUGAGUAUUCCCCGCAAAUUUCUCUCUUUCUUCAGUUCAGCCGAUUUCCUUUUUUCUUUUCUUUUUUUUUUUUUUUUUUUUUGGCUGUGACCUCUUCAAACCAACAGAGGAUUGAGCAUCA
B2: ENSG00000107863:be:win_1051|CDS|ENSG00000107863|bound_else_gene|NA|bound_elsewhere_windowed (ssRNA)
RNA: GGGAGUUCUACAGUCCGACGAUCUACAGUGGACAUUCUGAUGGAAUCUCAAGCAGCAGAUCUCAAGCUGUGGAGGCUCCCUCUGUAUCUGUUAAUCACUAUUCGCCAAAUUCCCAUCAGCACAUAGACUGGAAAAACUAUAAACAACAGAGGAUUGAGCAUCA
B3: chr14:106116634:106116941:-|CDS|ENSG00000211941|control|control|control (ssRNA)
RNA: GGGAGUUCUACAGUCCGACGAUCUGGAUCCGCCAGGCUCCAGGGAAGGGGCUGGAGUGGGUUUCAUACAUUAGUAGUAGUAGUAGUUACACAAACUACGCAGACUCUGUGAAGGGCCGAUUCACCAUCUCCAGAGACAACGCCCAACAGAGGAUUGAGCAUCA
B4: chr2:73226876:73226918:+|3pUTR|ENSG00000135632|msi1_unk|total|mutant (ssRNA)
RNA: GGGAGUUCUACAGUCCGACGAUCAUCUUCCGGGUCUCCACAGACUAACAUUGAAGUCUUCCAGAAACCUCGAGGAGCUGGGCCCGAUACUUCGAGAGCCGCCCUGUCUUGUCCCCUCCUACCCCCAGAUCCGCACCACCCCUCCAACAGAGGAUUGAGCAUCA
B5: ENSG00000104142:stop:overlap|stop_codon|ENSG00000104142|stop_codon|NA|stop_codon (ssRNA)
RNA: GGGAGUUCUACAGUCCGACGAUCCUAUCGACCGGCCGUUCAUCGACCCCCAGCGCUACGAGGAGGAGCAGCUCAGUUGGCUGUAGGAGGGUGUCACCUUUGAUGGGGGGUGGGCAAUGGGGAGCAGUGGCUUGAACCCACUUGCAACAGAGGAUUGAGCAUCA
B6: chr7:6690371:6690472:-|3pUTR|ENSG00000164631|msi1|FALSE|bound_elsewhere (ssRNA)
RNA: GGGAGUUCUACAGUCCGACGAUCUGAAAAAAAAAAAAGAAAUAGAAGAUUCCUGCUGUGAAUAAACAUACUUCUUGUGUAAAUAGAAACUGUAAAGUCAUCAGGAUAGCUAGUUAAGUCGGUAACCUUAAACUCAUGUAAGCACAACAGAGGAUUGAGCAUCA
B7: chr9:132670296:132670397:+|5pUTR|ENSG00000125484|msi1|total|mutant (ssRNA)
RNA: GGGAGUUCUACAGUCCGACGAUCCCUCCCCUUUACCGCCCCGUGCGUUUCCUCAGCACUUCCGGAACUAAAGCCUGUCUGGGCCGCUCCCUAACAGGCUCUGGAGCUCAAUCCCUGGGCAGGGAAAAGGGGGUCCUCGGGGCUCAACAGAGGAUUGAGCAUCA
B8: chr5:144162273:144162391:-|CDS|ENSG00000145817|unk|FALSE|unique (ssRNA)
RNA: GGGAGUUCUACAGUCCGACGAUCCCCAUAGGCUGGCAAAAUCCAGUUUGGCUAUGUAUACGGGAUCAGUGCAAUUGGAUGUCUAGGAAUGUUUUGUUUAUUAAACUUAAUGAGUAUGACAGGUGUUUCAUUUGGUUGUGUGGCCAACAGAGGAUUGAGCAUCA
B9: chr2:32414998:32415099:+|CDS|ENSG00000115760|unk|total|mutant (ssRNA)
RNA: GGGAGUUCUACAGUCCGACGAUCCCAUGUUUAUCCGCUGGAGGUUUAUUAACAUAUAAAUCUCCUGCUACCUCACCCAUCCGCCGUAAUUCUCACAGGUCACUGGAUGGUUUAAGCAGAACUCAGGGUGAAAGUAUAUCAGAACAACAGAGGAUUGAGCAUCA
B10: ENSG00000070961:be:win_351|CDS|ENSG00000070961|bound_else_gene|NA|bound_elsewhere_windowed (ssRNA)
RNA: GGGAGUUCUACAGUCCGACGAUCAGCCAUAGUAUCAUUGGGCCUUUCUUUUUAUCAGCCUCCAGAAGGGGAUAAUGCACUUUGUGGAGAAGUUUCUGUUGGGGAGGAAGAAGGUGAAGGUGAAACUGGUUGGAUUGAAGGAGCCAACAGAGGAUUGAGCAUCA
B11: chr1:225494445:225494546:-|3pUTR|ENSG00000154380|msi1|total|mutant (ssRNA)
RNA: GGGAGUUCUACAGUCCGACGAUCUUGGGUGUUCCCUCUUCUUAUUUUCUCUCUGCCCACCUUGACACAGUAACUUCCUCUUACCGUCAAGAUGAUGAUUAAGUGUUUAAUUUUUAUUCCAUUUUGUUCUGCAACACGUUCAGGCAACAGAGGAUUGAGCAUCA
B12: ENSG00000070961:be:win_801|CDS|ENSG00000070961|bound_else_gene|NA|bound_elsewhere_windowed (ssRNA)
RNA: GGGAGUUCUACAGUCCGACGAUCGGAAGGCUCUGGAAGAAUGGUAGUUACAGCUGUAGGUGUAAAUUCUCAAACUGGAAUUAUCUUUACCUUACUUGGAGCUGGAGGUGAAGAGGAAGAGAAGAAAGAUGAGAAGAAAAAGGACAACAGAGGAUUGAGCAUCA
B13: chr16:67395001:67395280:-|CDS|ENSG00000159714|control|control|control (ssRNA)
RNA: GGGAGUUCUACAGUCCGACGAUCCCGGAUCCGACCCCAGGUAGGAGGGACUGUGCUGGGCCUCCGGUCCAGGUGGAGUGGGAUAGAAAGAAGCCUCUACCCUGGCGCUCGCCUCUGCUUCUUUUGGCGAUGUGGGGCCCUCAGCAACAGAGGAUUGAGCAUCA
B14: ENSG00000198589:be:win_5251|CDS|ENSG00000198589|bound_else_gene|NA|bound_elsewhere_windowed (ssRNA)
RNA: GGGAGUUCUACAGUCCGACGAUCGUGGUUUCCUCAGUAGAUUCAGCCCAAGCCUCAGAUAUGGGAGGAGAAUCACCAGGCAGUAGAUCAUCUAAUGCAAAAUUGCCCUCAGUUCCAACAGUUGAUUCAGUUUCACAAGAUCCGCAACAGAGGAUUGAGCAUCA

The other results are listed elsewhere or left out.

The test deals with MSI1 full-length (mouse, UniProt Q61474 1-362). Kind of test: nsRBNS (natural sequence RNA bind-n-seq); RBNS binding buffer (assumed for nsRBNS): 25 mM Tris pH 7.5, 150 mM KCl, 3 mM MgCl2, 0.01% Triton X-100, 500 ug/ml BSA, 20 U/ml SUPERase-In, 4 C; UNK is unkempt and MSI1 is Musashi-1; names of the RNAs are library labels; protein concentration not given here; high values mean tight binding.
Sequence of UniProt Q61474 (Q61474 whole entry): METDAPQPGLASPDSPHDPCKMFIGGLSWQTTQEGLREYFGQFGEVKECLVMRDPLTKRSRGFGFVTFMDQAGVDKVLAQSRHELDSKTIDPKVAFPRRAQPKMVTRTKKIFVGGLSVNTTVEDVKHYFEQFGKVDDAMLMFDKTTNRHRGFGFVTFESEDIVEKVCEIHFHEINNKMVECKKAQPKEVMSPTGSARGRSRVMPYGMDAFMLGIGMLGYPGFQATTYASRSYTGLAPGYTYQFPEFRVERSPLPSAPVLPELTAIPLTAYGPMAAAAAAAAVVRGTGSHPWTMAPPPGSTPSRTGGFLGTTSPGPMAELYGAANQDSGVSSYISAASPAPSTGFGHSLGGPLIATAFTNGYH
With B1, the binding signal came to 2.13 enrichment R. Turning to B2, the binding signal stood at 1.83 enrichment R. For the molecule B3, the binding signal was found to be 3.09 enrichment R. The figure for B4 is 0.711 enrichment R; for B5 it is 0.321 enrichment R; for B6 it is 3.7 enrichment R. The figure for B7 is 0.383 enrichment R; for B8 it is 0.343 enrichment R.

With B9, the binding signal amounted to 0.411 enrichment R.

B10 yielded a binding signal of 0.421 enrichment R. For B11 the value was 0.712 enrichment R; for B12, 0.737 enrichment R.

In the case of B13, the binding signal is 0.505 enrichment R. The figure for B14 is 0.752 enrichment R.
